{
  "source": "the supplement of paper PMC8728848",
  "binders": {"B1": {"name": "Blon2468mut (Bifidobacterium longum) (protein)", "chain": "MTFIKQMMPRYVASMTAGIVAAAMAATCAFAPVANADAVSPTQETIQSTGRHFMVYYRAWRDVTMKGVNTDLPDDNWISMYDIPYGVDVVNIFSYVPSGQEEQAQPFYDKLKSDYAPYLHSRGIKLVRGIDYTGVAVNGFRTFMKEQNKTESEATEADYDAYAKQVIDKYMISVGLDGLDIDMQAHPNDADVKISDNVIRALSKHIGPKSAKPDTTMFLYDTNGSYLNPFKNVAECFDYVAYQQYGSSSDRTARAAADYQPYIGNEFVPGLTFPEEGDMNNRWYDATEPYEESHFYQVASYVREHNLGGMFVYALDRDGRNYDEDLRRIVPSNLLWTKTAIAESEGMALDTAKTAANHYLDRMSLRQVIDDNAASADKARDMVGKAANLYETNKAVLGGDYGEGFSNTYDPTLEAGLLGIDISVLQQQIDKSSEIIGADTAESDAKTALRMARDAAIDGLTGKIYTADQVSAWSQALKAALDATVPVPTPDSTDQNGNRDKVTNHKVQGQPKQLSATGISTDIIVAVGVTLAIAGVALSLSRKLS"}},
  "assay_in_all_cases": "glycan array binding signal (z-score within array); higher = stronger binding",
  "conditions_in_all_cases": "glycan notation: IUPAC condensed, linker removed",
  "key": {"[1]": {"biological_target": "Gal(b1-4)Glc6S", "in_short": "(§1)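 The binding signal is a Z-score computed within each array. Data were drawn from 3228 arrays in the Consortium for Functional Glycomics database, restricted to those with a known protein sequence. Scores were averaged over arrays of the same protein sequence at different concentrations or buffers, and over linkers, and negative values can be taken as non-binding.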"}, "[2]": {"biological_target": "Gal(b1-4)GlcNAc", "in_short": "as §1"}, "[3]": {"biological_target": "Gal(b1-4)GlcNAc(a1-6)Gal(b1-4)GlcNAc", "in_short": "as §1"}, "[4]": {"biological_target": "Gal(b1-4)GlcNAc(b1-2)Man", "in_short": "as §1"}, "[5]": {"biological_target": "Gal(b1-4)GlcNAc(b1-2)Man(a1-3)Man(b1-4)GlcNAc(b1-4)GlcNAc", "in_short": "as §1"}, "[6]": {"biological_target": "Gal(b1-4)GlcNAc(b1-2)Man(a1-3)[Gal(b1-4)GlcNAc(b1-2)Man(a1-6)]Man(b1-4)GlcNAc(b1-4)GlcNAc", "in_short": "as §1"}, "[7]": {"biological_target": "Gal(b1-4)GlcNAc(b1-2)Man(a1-3)[Gal(b1-4)GlcNAc(b1-2)Man(a1-6)]Man(b1-4)GlcNAc(b1-4)[Fuc(a1-6)]GlcNAc", "in_short": "as §1"}, "[8]": {"biological_target": "Gal(b1-4)GlcNAc(b1-2)Man(a1-3)[Gal(b1-4)GlcNAc(b1-2)Man(a1-6)][Gal(b1-4)GlcNAc(b1-4)]Man(b1-4)GlcNAc(b1-4)[Fuc(a1-6)]GlcNAc", "in_short": "as §1"}, "[9]": {"biological_target": "Gal(b1-4)GlcNAc(b1-2)Man(a1-3)[Gal(b1-4)GlcNAc(b1-2)Man(a1-6)][GlcNAc(b1-4)]Man(b1-4)GlcNAc(b1-4)[Fuc(a1-6)]GlcNAc", "in_short": "as §1"}, "[10]": {"biological_target": "Gal(b1-4)GlcNAc(b1-2)Man(a1-3)[GlcNAc(b1-2)Man(a1-6)]Man(b1-4)GlcNAc(b1-4)GlcNAc", "in_short": "as §1"}, "[11]": {"biological_target": "Gal(b1-4)GlcNAc(b1-2)Man(a1-3)[GlcNAc(b1-4)][Gal(b1-4)GlcNAc(b1-2)Man(a1-6)]Man(b1-4)GlcNAc(b1-4)GlcNAc", "in_short": "as §1"}, "[12]": {"biological_target": "Gal(b1-4)GlcNAc(b1-2)Man(a1-3)[Man(a1-6)]Man(b1-4)GlcNAc(b1-4)GlcNAc", "in_short": "as §1"}, "[13]": {"biological_target": "Gal(b1-4)GlcNAc(b1-2)Man(a1-6)Man(b1-4)GlcNAc(b1-4)GlcNAc", "in_short": "as §1"}, "[14]": {"biological_target": "Gal(b1-4)GlcNAc(b1-2)Man(a1-6)[GlcNAc(b1-2)Man(a1-3)]Man(b1-4)GlcNAc(b1-4)GlcNAc", "in_short": "as §1"}, "[15]": {"biological_target": "Gal(b1-4)GlcNAc(b1-2)Man(a1-6)[Man(a1-3)]Man(b1-4)GlcNAc(b1-4)GlcNAc", "in_short": "as §1"}, "[16]": {"biological_target": "Gal(b1-4)GlcNAc(b1-2)[Gal(b1-4)GlcNAc(b1-4)]Man(a1-3)[Gal(b1-4)GlcNAc(b1-2)Man(a1-6)]Man(b1-4)GlcNAc(b1-4)GlcNAc", "in_short": "as §1"}, "[17]": {"biological_target": "Gal(b1-4)GlcNAc(b1-2)[Gal(b1-4)GlcNAc(b1-4)]Man(a1-3)[Gal(b1-4)GlcNAc(b1-2)[Gal(b1-4)GlcNAc(b1-6)]Man(a1-6)]Man(b1-4)GlcNAc(b1-4)GlcNAc", "in_short": "as §1"}, "[18]": {"biological_target": "Gal(b1-4)GlcNAc(b1-2)[Gal(b1-4)GlcNAc(b1-4)]Man(a1-3)[GlcNAc(b1-4)][Gal(b1-4)GlcNAc(b1-2)Man(a1-6)]Man(b1-4)GlcNAc(b1-4)GlcNAc", "in_short": "as §1"}, "[19]": {"biological_target": "Gal(b1-4)GlcNAc(b1-2)[Gal(b1-4)GlcNAc(b1-4)]Man(a1-3)[GlcNAc(b1-4)][Gal(b1-4)GlcNAc(b1-2)[Gal(b1-4)GlcNAc(b1-6)]Man(a1-6)]Man(b1-4)GlcNAc(b1-4)GlcNAc", "in_short": "as §1"}, "[20]": {"biological_target": "Gal(b1-4)GlcNAc(b1-2)[Gal(b1-4)GlcNAc(b1-6)]Man(a1-6)[Gal(b1-4)GlcNAc(b1-2)Man(a1-3)]Man(b1-4)GlcNAc(b1-4)GlcNAc", "in_short": "as §1"}, "[21]": {"biological_target": "Gal(b1-4)GlcNAc(b1-2)[Gal(b1-4)GlcNAc(b1-6)]Man(a1-6)[Gal(b1-4)GlcNAc(b1-2)Man(a1-3)]Man(b1-4)GlcNAc(b1-4)[Fuc(a1-6)]GlcNAc", "in_short": "as §1"}, "[22]": {"biological_target": "Gal(b1-4)GlcNAc(b1-2)[Gal(b1-4)GlcNAc(b1-6)]Man(a1-6)[GlcNAc(b1-4)][Gal(b1-4)GlcNAc(b1-2)Man(a1-3)]Man(b1-4)GlcNAc(b1-4)GlcNAc", "in_short": "as §1"}, "[23]": {"biological_target": "Gal(b1-4)GlcNAc(b1-2)[Gal(b1-4)GlcNAc(b1-6)]Man(a1-6)[GlcNAc(b1-4)][Gal(b1-4)GlcNAc(b1-2)[Gal(b1-4)GlcNAc(b1-4)]Man(a1-3)]Man(b1-4)GlcNAc(b1-4)[Fuc(a1-6)]GlcNAc", "in_short": "as §1"}, "[24]": {"biological_target": "Gal(b1-4)GlcNAc(b1-3)Gal(b1-3)GalNAc", "in_short": "as §1"}, "[25]": {"biological_target": "Gal(b1-4)GlcNAc(b1-3)Gal(b1-3)GlcNAc", "in_short": "as §1"}, "[26]": {"biological_target": "Gal(b1-4)GlcNAc(b1-3)Gal(b1-4)Glc", "in_short": "as §1"}, "[27]": {"biological_target": "Gal(b1-4)GlcNAc(b1-3)Gal(b1-4)GlcNAc", "in_short": "as §1"}, "[28]": {"biological_target": "Gal(b1-4)GlcNAc(b1-3)Gal(b1-4)GlcNAc(b1-2)Man(a1-3)[Gal(b1-4)GlcNAc(b1-3)Gal(b1-4)GlcNAc(b1-2)Man(a1-6)]Man(b1-4)GlcNAc(b1-4)GlcNAc", "in_short": "as §1"}, "[29]": {"biological_target": "Gal(b1-4)GlcNAc(b1-3)Gal(b1-4)GlcNAc(b1-2)Man(a1-3)[Gal(b1-4)GlcNAc(b1-3)Gal(b1-4)GlcNAc(b1-2)Man(a1-6)]Man(b1-4)GlcNAc(b1-4)[Fuc(a1-6)]GlcNAc", "in_short": "as §1"}, "[30]": {"biological_target": "Gal(b1-4)GlcNAc(b1-3)Gal(b1-4)GlcNAc(b1-2)[Gal(b1-4)GlcNAc(b1-3)Gal(b1-4)GlcNAc(b1-6)]Man(a1-6)[Gal(b1-4)GlcNAc(b1-3)Gal(b1-4)GlcNAc(b1-2)Man(a1-3)]Man(b1-4)GlcNAc(b1-4)GlcNAc", "in_short": "as §1"}},
  "note": "This is one part of the list.",
  "data": [
    {"binder": "B1", "values": [
      {"measurement": "glycan array binding signal (z-score)", "setting": "[1]", "result": -0.063},
      {"measurement": "glycan array binding signal (z-score)", "setting": "[2]", "result": -0.072},
      {"measurement": "glycan array binding signal (z-score)", "setting": "[3]", "result": -0.082},
      {"measurement": "glycan array binding signal (z-score)", "setting": "[4]", "result": -0.087},
      {"measurement": "glycan array binding signal (z-score)", "setting": "[5]", "result": -0.059},
      {"measurement": "glycan array binding signal (z-score)", "setting": "[6]", "result": -0.039},
      {"measurement": "glycan array binding signal (z-score)", "setting": "[7]", "result": -0.086},
      {"measurement": "glycan array binding signal (z-score)", "setting": "[8]", "result": -0.094},
      {"measurement": "glycan array binding signal (z-score)", "setting": "[9]", "result": -0.065},
      {"measurement": "glycan array binding signal (z-score)", "setting": "[10]", "result": -0.066},
      {"measurement": "glycan array binding signal (z-score)", "setting": "[11]", "result": -0.088},
      {"measurement": "glycan array binding signal (z-score)", "setting": "[12]", "result": -0.082},
      {"measurement": "glycan array binding signal (z-score)", "setting": "[13]", "result": -0.077},
      {"measurement": "glycan array binding signal (z-score)", "setting": "[14]", "result": -0.055},
      {"measurement": "glycan array binding signal (z-score)", "setting": "[15]", "result": -0.07},
      {"measurement": "glycan array binding signal (z-score)", "setting": "[16]", "result": -0.097},
      {"measurement": "glycan array binding signal (z-score)", "setting": "[17]", "result": -0.077},
      {"measurement": "glycan array binding signal (z-score)", "setting": "[18]", "result": -0.087},
      {"measurement": "glycan array binding signal (z-score)", "setting": "[19]", "result": -0.096},
      {"measurement": "glycan array binding signal (z-score)", "setting": "[20]", "result": -0.083},
      {"measurement": "glycan array binding signal (z-score)", "setting": "[21]", "result": -0.061},
      {"measurement": "glycan array binding signal (z-score)", "setting": "[22]", "result": -0.066},
      {"measurement": "glycan array binding signal (z-score)", "setting": "[23]", "result": -0.088},
      {"measurement": "glycan array binding signal (z-score)", "setting": "[24]", "result": -0.058},
      {"measurement": "glycan array binding signal (z-score)", "setting": "[25]", "result": -0.1},
      {"measurement": "glycan array binding signal (z-score)", "setting": "[26]", "result": -0.061},
      {"measurement": "glycan array binding signal (z-score)", "setting": "[27]", "result": -0.048},
      {"measurement": "glycan array binding signal (z-score)", "setting": "[28]", "result": -0.04},
      {"measurement": "glycan array binding signal (z-score)", "setting": "[29]", "result": -0.036},
      {"measurement": "glycan array binding signal (z-score)", "setting": "[30]", "result": -0.069}
    ]}
  ]
}
